# Measured values: PubChem BioAssay AID504466 (National Center for Advancing Translational Sciences (NCATS), 2011)
# Out of some 330,000 compounds screened, about 4,200 (1.3%) were called active. Inconclusive results, whose numbers are uncertain, are shown with a selection of clear calls. Calls follow the shape of the dose curve; as a rule, active = well fitted activation curve with a large enough effect; inconclusive = small, poorly fitted or top-dose-only effect; inactive = no such curve, though single readings can be large or run the other way. Where the call is inconclusive, the potency comes from a doubtful curve fit.
# Assay: qHTS screen for small molecules that induce genotoxicity in human embryonic kidney (HEK293T) cells expressing luciferase-tagged ELG1; also: nearly all actives have a fitted effect of over 60% in size
# Settings: HEK293T ELG1-luciferase reporter, luminescence, 16 h; series mostly up to 46 µM
# Procedure, shortened: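 Reporter readout depends on ELG1 protein level, which increases with genetic stress. After 16 hr compound exposure at 37 °C, luciferase activity was quantified using ONE-Glo.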
# Potency is read from the fitted curve at half-maximal effect; tags tell the direction and shape of the fitted curve.
row,Structure (SMILES),Potency
1,COc1ccc(-c2cc(CS(=O)(=O)c3ccccc3)on2)cc1,"inconclusive: 11.6 µM [activator, partial curve]"
2,O=[N+]([O-])c1cccc(-c2noc(-c3cccs3)n2)c1,active: 14.6 µM
3,O=C(CCc1ccccc1)Nc1ccc(F)cc1F,"inconclusive: 10 µM [activator, partial curve]"
4,Cc1ccc(N2C(=O)C3CCCN3C2=S)cc1Cl (stereo unspecified),inactive
5,CN(c1ccc(C(=O)NCCSCc2ccco2)cc1)S(C)(=O)=O,"inconclusive: 18.4 µM [activator, partial curve]"
6,O=C(NCC1CCCO1)c1ccc2nc(N3CCCCC3)sc2c1 (stereo unspecified),"inconclusive: 10.3 µM [activator, partial curve]"
7,CCOC(=O)c1ccc(Nc2cnc3ccccc3n2)cc1,active: 9.2 µM
8,CSCCC(NC(=O)c1cccc([N+](=O)[O-])c1)C(=O)OCC(=O)N1CCCC1=O (stereo unspecified),inactive
9,Oc1ccccc1C=Nc1ccccc1-c1nc2ccccc2[nH]1,"inconclusive: 9.2 µM [activator, partial curve, poor fit]"
10,Oc1ccc(Br)cc1Cn1nnc2ccccc21,inactive
11,C/C(=N/NC(=O)c1ccc2nc[nH]c2c1)c1cccs1,"inconclusive: 7.31 µM [activator, partial curve]"
12,O=C(Nc1nccs1)c1ccc2nccnc2c1,inactive
13,O=c1c2c3c(sc2nc2n1CCCCC2)C(O)CCC3 (stereo unspecified),"inconclusive: 13 µM [activator, partial curve, poor fit]"
14,c1cc2c(cc1Nc1nc(-c3ccc4c(c3)OCO4)cs1)OCCO2,"inconclusive: 3.66 µM [activator, partial curve]"
15,Cc1cnc(C(=O)Nc2ccc(F)c(F)c2)cn1,active: 16.4 µM
16,CN(C)c1ccc(/C=N/Nc2nc3ccccc3o2)cc1,"inconclusive: 0.58 µM [activator, full curve]"
17,CCN(CC(=O)Nc1ccc2c(c1)OCCO2)C(=O)/C=C/c1ccc(F)cc1,"inconclusive: 23.1 µM [activator, partial curve, poor fit]"
18,Oc1c(C(Nc2nccs2)c2ccc(C(F)(F)F)cc2)ccc2cccnc12 (stereo unspecified),"inconclusive: 29.1 µM [activator, single point]"
19,O=C(Nc1ccccc1)c1cc(-c2ccccc2Cl)no1,"inconclusive: 20.6 µM [activator, partial curve]"
20,CCNC(=O)COC(=O)c1ccc(-c2nc3ccccc3s2)s1,"inconclusive: 16.4 µM [activator, partial curve]"
21,CCS(=O)(=O)N1Cc2ccccc2CC1C(=O)Nc1ccc(C)cc1 (stereo unspecified),"inconclusive: 10 µM [activator, partial curve, poor fit]"
22,COc1cc(N2CCCC2)c(OC)cc1/C=C(/C#N)c1cccc(F)c1,inactive
23,Cc1ccc(NC(=O)C2CC3CCC2C3)c(Br)c1 (stereo unspecified),"inconclusive: 8.2 µM [activator, partial curve, poor fit]"
24,O=C(CSc1ncn[nH]1)Nc1nnc(-c2ccccc2)s1,"inconclusive: 20.6 µM [activator, single point]"

row,Structure (SMILES),Potency
1,CC1=CC(C)[C@H](/C=N/n2c(=O)[nH]c3c([nH]c4ccc(Br)cc43)c2=O)C(C)C1 (stereo partly specified),"inconclusive: 6.51 µM [activator, partial curve, poor fit]"
2,CC(C)CN1CCN(Cc2cnc(-c3ccc(Cl)cc3)nc2)CC1CCO (stereo unspecified),inactive
3,COc1ccccc1-c1sc2ccccc2c1C#CC1(O)CCCCC1,inactive
4,Cc1ccc(C(=O)Nc2ccc(C)c(S(=O)(=O)N(C)C)c2)s1,"inconclusive: 2.06 µM [activator, full curve, poor fit]"
5,COc1ccccc1OCCn1nnc2ccccc21,"inconclusive: 23.1 µM [activator, single point]"
6,O=C1N=C(N2CCCCC2)S/C1=C\c1ccccc1F,"inconclusive: 16.4 µM [activator, partial curve, poor fit]"
7,Cc1ccc(C(=O)c2coc3ccc(O)cc23)cc1,"inconclusive: 3.26 µM [activator, single point]"
8,Cc1cccc(NC(=O)C2COc3ccccc3O2)n1 (stereo unspecified),inactive
9,CCCCCCCCCC(=O)N/N=C/c1ccc(C)s1,"inconclusive: 28.2 µM [activator, single point]"
10,C=CCc1cccc(/C=N/NC(=O)c2ccc3nc[nH]c3c2)c1O,"inconclusive: 29.1 µM [activator, single point]"
11,C/C(=N\NC(=O)c1ccc2c(c1)OCCO2)c1ccccc1,active: 0.326 µM
12,Nc1nccc(/C=C/c2ccc(Cl)cc2)n1,"inconclusive: 10.3 µM [activator, partial curve, poor fit]"
13,O=C(Cc1ccccc1)Nc1ccccc1C(=O)O,"inconclusive: 16.4 µM [activator, single point]"
14,CCOC(=O)c1nnn(-c2nc(OC)nc(N3CCCCC3)n2)c1-c1ccccc1,inactive
15,O=C(c1ccc2c3c(cccc13)C(=O)N(O)C2=O)N1CCCCC1,"inconclusive: 25.9 µM [activator, partial curve, poor fit]"
16,COc1ccc(-c2nnc(NC(=O)c3cccs3)s2)c(OC)c1,"inconclusive: 23.1 µM [activator, single point]"
17,Cc1ccc(NC(=O)CSc2nnc(-c3cccnc3)o2)c(C)c1,"inconclusive: 18.3 µM [activator, single point]"
18,Cn1cnc2c(N/N=C/c3cccs3)ncnc21,"inconclusive: 8.2 µM [activator, partial curve, poor fit]"
19,O=C(O)C1CCCCC1C(=O)Nc1ccc(OCc2ccccc2)cc1 (stereo unspecified),"inconclusive: 20.6 µM [activator, partial curve, poor fit]"
20,COc1cc(C(=O)Nc2ccc3c(c2)ncn3C)cc(OC)c1OC,"inconclusive: 29.1 µM [activator, single point]"
21,C/C(=N\NC(=O)Cc1cccn1C)c1ccc2ccccc2c1,"inconclusive: 11.2 µM [activator, partial curve, poor fit]"
22,Cc1ccc(C)c(NC(=O)/C(C#N)=C/c2ccc(Sc3nncn3C)c([N+](=O)[O-])c2)c1,"inconclusive: 25.9 µM [activator, single point]"
23,CCCOc1ccccc1NC(=O)/C=C/C(N)=O,inactive
24,CCOc1cccc(C=Nc2cc(C)cc(C)c2O)c1O,inactive

row,Structure (SMILES),Potency
1,Cc1ccc(S(=O)(=O)n2nc(-c3ccc(Cl)cc3)nc2NCc2ccco2)cc1,"inconclusive: 7.31 µM [activator, partial curve, poor fit]"
2,N/C(=N\OCc1ccc([N+](=O)[O-])cc1)c1ccncc1,"inconclusive: 20.6 µM [activator, partial curve]"
3,CCn1c(C)cc(/C=C2/SC(=S)NC2=O)c1C,"inconclusive: 20.6 µM [activator, partial curve, poor fit]"
4,Cc1ccnc(NC(=O)c2c(O)c3ccccc3n(C)c2=O)c1,"inconclusive: 1.03 µM [activator, partial curve]"
5,Cc1ccc(N2C(=O)CC(Sc3ccccc3C(=O)O)C2=O)cc1C (stereo unspecified),inactive
6,COc1cc(/C=N/NC(=O)c2ccc(Cl)c(S(N)(=O)=O)c2)ccc1OCC(N)=O,inactive
7,O=[N+]([O-])c1cc(-c2n(-c3ccccn3)c3ccccc3[n+]2-c2ccccn2)ccc1Cl,inactive
8,COc1cc(C(=O)Nc2cc(C)ccn2)ccc1OCC(=O)N1CCOCC1,"inconclusive: 29.1 µM [activator, partial curve, poor fit]"
9,CCc1nnc(SCC(=O)Nc2ccc(F)cc2)o1,inactive
10,CCn1c(C)nc2cc(C(=O)NNC(=S)Nc3ccccc3Cl)ccc21,"inconclusive: 18.4 µM [activator, single point]"
11,COc1ccccc1/C=C/C(=O)Nc1ccc2c(c1)CCC2,"inconclusive: 2.31 µM [activator, full curve]"
12,CC(=O)Nc1ccc(-c2csc(-c3cccnc3)n2)cc1,active: 6.51 µM
13,Cc1ccc(N(C(=O)c2snc(C(N)=O)c2N)C(C(=O)NC2CCCC2)c2ccncc2)cc1 (stereo unspecified),inactive
14,N/C(=N\OC(=O)Cc1ccc(-c2ccccc2)cc1)c1ccccn1,"inconclusive: 23.1 µM [activator, partial curve, poor fit]"
15,O=C(CNc1cccc(S(=O)(=O)N2CCCC2)c1)Nc1cccc(Br)c1,"inconclusive: 29.1 µM [activator, single point]"
16,CC(C)(C)c1nnc(NC(=O)COc2ccc3c(c2)OCO3)s1,"inconclusive: 7.3 µM [activator, partial curve, poor fit]"
17,Cc1ccc2c(c1)c1c(n2CC(O)CN2C(=O)CNC2=O)C(=O)CCC1 (stereo unspecified),"inconclusive: 6.51 µM [activator, partial curve, poor fit]"
18,COc1ccc(C(=O)Cn2c(Br)nc3c2c(=O)n(C)c(=O)n3C)cc1OC,inactive
19,Cc1cccc(OCC(=O)Nc2cccc3nsnc23)c1,"inconclusive: 23.1 µM [activator, partial curve, poor fit]"
20,COCC(C)NC(=O)c1cc(S(=O)(=O)N2CCCCC2)ccc1N1CCOCC1 (stereo unspecified),inactive
21,Cc1ccc(C(=O)OCC(=O)c2cc(C)n(CC3CCCO3)c2C)cc1 (stereo unspecified),"inconclusive: 5.17 µM [activator, partial curve]"
22,Cc1ccccc1-c1nnc(SCc2ccccc2F)o1,"inconclusive: 6.51 µM [activator, partial curve]"
23,COc1ccc(OCC(=O)NC(=O)c2ccccc2OC)c([N+](=O)[O-])c1,inactive
